# In the supplement of paper PMC3334620:
# Over roughly 33,000 sequences, “E-score (-0.5 to 0.5)” has its median near -0.013; the highest 2% begin near 0.3. The list shows a part of the results.
# Molecular target: T1, Msn1 (UniProt P22148)
# T1 sequence: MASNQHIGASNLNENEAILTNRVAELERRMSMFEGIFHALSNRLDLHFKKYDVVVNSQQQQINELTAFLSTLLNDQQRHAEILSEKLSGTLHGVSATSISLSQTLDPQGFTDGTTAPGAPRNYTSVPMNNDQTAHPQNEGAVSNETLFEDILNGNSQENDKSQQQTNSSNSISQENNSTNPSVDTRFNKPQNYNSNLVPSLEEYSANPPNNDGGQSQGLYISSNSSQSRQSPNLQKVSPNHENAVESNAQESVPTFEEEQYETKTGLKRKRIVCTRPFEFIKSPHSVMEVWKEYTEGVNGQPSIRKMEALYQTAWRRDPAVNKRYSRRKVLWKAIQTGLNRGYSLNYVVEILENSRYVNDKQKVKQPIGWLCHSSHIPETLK
# Test: PBM E-score (8-mer binding enrichment) (E-score (-0.5 to 0.5)); higher = stronger / more preferred TF binding; most listed sequences are background and not binding sites
# Settings: protein concentration: 200 nM; construct: GST-full length
# Summary of the method: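 Yeast transcription factors, full-length or as DNA-binding domains, were expressed with a GST tag using PURExpress in vitro transcription/translation. At about 100-200 nM they were applied to universal all-10-mer Agilent arrays, double-stranded by primer extension on fresh or once-stripped slides. Fluorescent anti-GST detected bound protein, and masliner normalised the scans. E-scores for ungapped eight-base words, pooled with reverse complements, came from the Universal PBM Analysis Suite.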
row,Sequence,PBM E-score
1,TCGCAAAA,-0.0395
2,TCGCTCAA,0.0545
3,TCGCGACA,0.157
4,AAGCATGA,-0.0381
5,CTTACCGA,-0.0903
6,CCAGGGGA,-0.262
7,CTGGGATA,-0.0501
8,AATGATGA,0.149
9,TCGTTTAA,0.255
10,AGAATTTA,0.0908
11,AGCCACCA,-0.162
12,ATATATAG,0.219
13,TCTAATAA,-0.0049
14,ACGTATGC,-0.0244
15,ATTGAGGA,0.0503
16,AAGGGTGG,-0.122
17,GTTCTTTA,0.162
18,TAAGAACA,0.249
19,ACACAGTG,-0.0386
20,GATCAACC,-0.178
21,ACCCTGAA,-0.0936
22,AGCAACGA,-0.0942
23,GTTCGCTA,-0.0408

row,Sequence,PBM E-score
1,ATTCATGC,-0.172
2,GGGGCACA,-0.101
3,GGCAAGAA,0.12
4,GAGCAGGA,0.187
5,GATACGCA,0.11
6,CAACAAGG,0.257
7,CTGTGCAC,-0.151
8,AAAAATGA,0.143
9,AATGGGCA,-0.104
10,CAACTATC,-0.132
11,GCCACAGA,-0.234
12,CGAAACCG,0.0338
13,GGTGGCAC,-0.0685
14,CTCCATCA,-0.181
15,GCCGTTAC,-0.051
16,CTCCTGTC,0.0796
17,ATAAGGAG,-0.199
18,TCGCGAGA,0.00891
19,AGCTACGG,-0.108
20,CCACCCAA,-0.21
21,GACGATGC,-0.0765
22,AATAACGG,0.0528
23,GCAACACC,-0.112

row,Sequence,PBM E-score
1,AGTCAAGC,-0.285
2,ACGCGCCA,0.00563
3,ATTTTTAA,0.28
4,CAAAGGAC,-0.0287
5,CGATGGTA,-0.00123
6,AGCTAACT,-0.0808
7,ACAGTATC,0.0424
8,CAAGATTC,0.00889
9,ACGCTTGG,-0.103
10,CTGCTTGA,-0.134
11,AGATAGAC,0.176
12,GAATCAGA,0.00982
13,ATATATGC,0.187
14,CGCGCATC,-0.202
15,ACGCAGAT,0.066
16,CTCCTTCC,-0.326
17,ATCTGGGA,-0.0476
18,CAAGGGCG,-0.191
19,GACGGACC,-0.0404
20,GCTATGGA,-0.0554
21,AGGGAACT,-0.104
22,ATGAATAA,-0.00861
23,AGTCGGAA,0.0979

row,Sequence,PBM E-score
1,TCCAGCAA,0.133
2,GGGTGACA,-0.021
3,CGGTTTAG,0.0359
4,AGCAGAAT,0.0631
5,AATGATTG,0.0246
6,AGGTTCGA,0.0702
7,ACAAAGCC,0.195
8,TAAACACA,0.113
9,ATGTCAAC,0.263
10,AGGATCCG,-0.175
11,GCTCTAAA,0.0524
12,ATAAAAGA,0.0146
13,CCTATTCC,-0.0368
14,GCGTCGGA,0.102
15,AGATCGGG,-0.0957
16,ATCACGTC,0.0803
17,AGACTGTA,-0.0447
18,AATGGTGG,-0.173
19,ACTGTCGG,-0.0418
20,AATGAAAA,0.179
21,TCCTGAAA,0.105
22,AGGTTATC,-0.165
23,CCGTCCAC,0.0619

row,Sequence,PBM E-score
1,CTACGATA,0.143
2,GTGGCGCA,-0.11
3,TCGACACA,0.133
4,ATAGAGTA,-0.0249
5,GGTGCGAA,-0.057
6,GGTTCAAC,-0.074
7,AAGATAGT,0.00843
8,GAACACGA,0.169
9,ACAAGCCG,0.0757
10,CCCAGATA,-0.155
11,ATTGACCG,0.0223
12,ATCTTATA,0.185
13,ACCATTCA,-0.105
14,CAACGCGG,0.0564
15,ACAGCCGC,-0.0958
16,ACTTTGTC,0.41
17,CCAGCTCA,-0.139
18,GGGGCGTA,-0.279
19,CACTACCG,-0.181
